# Experimental data as given in the BET-seq Pho4 binding data (Le et al. 2018).
# This is one part of the list. These are noisy estimates, calculated here from bound and input reads.
# Molecular target: T1, Pho4 (S. cerevisiae) (UniProt P07270)
# T1 sequence: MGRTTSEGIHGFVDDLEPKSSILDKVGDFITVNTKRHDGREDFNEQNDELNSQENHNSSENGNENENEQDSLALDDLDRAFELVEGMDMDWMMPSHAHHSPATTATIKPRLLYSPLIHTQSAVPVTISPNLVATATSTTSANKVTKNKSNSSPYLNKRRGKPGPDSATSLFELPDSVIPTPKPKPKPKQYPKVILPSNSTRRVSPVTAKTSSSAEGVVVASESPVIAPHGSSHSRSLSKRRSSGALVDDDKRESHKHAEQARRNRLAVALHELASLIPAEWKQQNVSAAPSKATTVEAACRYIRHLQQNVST
# Assay: relative binding free energy (BET-seq); higher = weaker binding
# Details: reference: library average
row,Sequence,relative binding free energy [kcal/mol]
1,TTGCTCACGTGGTAGA,0.21
2,TACTTCACGTGGGTGC,0.18
3,TAGTCCACGTGGGGTG,-0.15
4,TATAGCACGTGAGAGA,0.24
5,GCGTACACGTGGTAGG,-0.06
6,TGTGGCACGTGGTTCG,-0.11
7,GAAGTCACGTGTTATA,0.18
8,TGAAGCACGTGGCGGG,-0.27
9,GTTTGCACGTGAGATG,0.31
10,TTTATCACGTGGAGAG,0.09
11,GTTGGCACGTGGACTT,-0.08
12,GTGGTCACGTGGTCGT,0.07
13,GTGCACACGTGTTTTA,0.05
14,TGTGACACGTGAGGGC,0.15
15,CTATTCACGTGTAGGA,0.2
16,GATTTCACGTGGGGTG,0.22
17,TGGATCACGTGGGGGC,0.01
18,TATAGCACGTGGTGAG,-0.14
19,GATAGCACGTGGTTTG,-0.08
20,TAATGCACGTGGCGGA,-0.18
21,TTTCACACGTGGGAGA,0.05
22,ATTAGCACGTGTGGAC,-0.03
23,TTTAACACGTGGATTC,0.02

row,Sequence,relative binding free energy [kcal/mol]
1,TCTTTCACGTGTGTGC,0.23
2,AAGTTCACGTGGGATG,0.19
3,TGGTACACGTGCGATG,0.04
4,TGGTACACGTGCAAGT,0.26
5,ATGCGCACGTGACGGT,0.11
6,TTGTACACGTGAGGTA,0.29
7,ATTTACACGTGGATAT,0.03
8,CGATGCACGTGTGATG,-0.1
9,CTTTTCACGTGTGTCG,0.42
10,TGAGACACGTGTAATG,0.14
11,GGGTCCACGTGAGAGG,0.34
12,TGTGGCACGTGATACG,-0.07
13,AGTTTCACGTGGGAAG,0.29
14,TTCGTCACGTGGTTTC,0.02
15,GTCTCCACGTGGGTGT,-0.04
16,TGGTTCACGTGGTCAC,0.33
17,TTTTTCACGTGTGACT,0.29
18,TGATACACGTGAAGGT,0.26
19,GATATCACGTGATAGG,0.32
20,CGGTTCACGTGTTTGC,0.19
21,TAGGGCACGTGGATGC,-0.09
22,AGGGTCACGTGTCTTA,0.08
23,TATTGCACGTGTTTGA,-0.07

row,Sequence,relative binding free energy [kcal/mol]
1,GTTGCCACGTGTAGGT,0.05
2,GTCTACACGTGGATGG,0.02
3,GGAGGCACGTGGATCG,-0.18
4,ACTGTCACGTGTAGGG,0.05
5,AAGTTCACGTGGAGGG,0.23
6,TAAGTCACGTGTTTTT,0.08
7,GCATGCACGTGAGGAG,0.25
8,TATATCACGTGGTGTG,0.04
9,ATGATCACGTGGCTGT,-0.05
10,GCCGTCACGTGTAGGT,0.09
11,GGGGACACGTGTGCAA,0.19
12,TAGAGCACGTGGGAGT,-0.13
13,CAGAGCACGTGGGCGG,-0.25
14,AGGAACACGTGGGTCA,-0.02
15,GAGGACACGTGCTGGT,0.02
16,GCGTCCACGTGTAGGG,0
17,AGTGTCACGTGTTCTT,0.07
18,GGTGGCACGTGCGGCC,-0.21
19,CCGATCACGTGTGGGT,0.19
20,GGGTGCACGTGATAGG,0.12
21,AGCATCACGTGCGGGG,0.13
22,GGGGGCACGTGGATCA,-0.17
23,CTGGTCACGTGAAGAG,0.24

row,Sequence,relative binding free energy [kcal/mol]
1,GCGTTCACGTGGGAAG,0.25
2,TATCTCACGTGTCGTG,0.19
3,TCGAGCACGTGTGGCG,0.05
4,TCGGGCACGTGGAGAT,-0.13
5,GTACGCACGTGTGGTG,-0.12
6,TATGTCACGTGCATTT,0.16
7,ATGTACACGTGGTATG,-0.01
8,TGGGACACGTGAACGT,0.21
9,TGGCGCACGTGGATTT,-0.1
10,TAGTGCACGTGGAGAA,0
11,GTAGTCACGTGTAGGA,0.2
12,TATTGCACGTGTATCT,-0.01
13,TCTTGCACGTGTATGA,0.01
14,TGATACACGTGGTTGA,-0.1
15,GGGTGCACGTGGTCCG,-0.14
16,GTTATCACGTGTTATT,0.32
17,GTCCTCACGTGGGTGT,0.23
18,TTGTGCACGTGCGGAG,-0.03
19,GTGTTCACGTGAAGCG,0.29
20,TGCTTCACGTGTTGAA,0.29
21,TTCAACACGTGTTTGG,0.14
22,AGAGGCACGTGTATAT,-0.15
23,CTAGTCACGTGGACGT,0.22

row,Sequence,relative binding free energy [kcal/mol]
1,TAGAGCACGTGGGTGG,-0.29
2,TATAACACGTGTGGTT,0.15
3,TTTGTCACGTGTACAG,0.04
4,TAAATCACGTGTTAGA,0.12
5,TTAGGCACGTGTGTCG,-0.1
6,TTATCCACGTGTTTGT,-0.07
7,GTATTCACGTGGATAG,0.22
8,AGCGCCACGTGTGGTG,-0.16
9,GGGTACACGTGATGGA,0.16
10,TCGTACACGTGGGGTG,-0.16
11,GTGTACACGTGCTGAA,0.12
12,GTCTGCACGTGGGTGC,-0.03
13,GAATACACGTGTGTGG,0.01
14,ATTGTCACGTGTAGCA,0.1
15,ATGGTCACGTGCTTGT,0.08
16,AATTGCACGTGGTTGG,-0.02
17,GTAATCACGTGTATGA,0.13
18,TATATCACGTGGGTAG,-0.06
19,GGTTACACGTGATTTA,0.19
20,TTTTTCACGTGGGGCC,0.13
21,TATAACACGTGTGTCG,-0.11
22,TTGTTCACGTGGATTG,0.32
23,ACAGGCACGTGGCTGG,-0.17
